From the supplement of paper PMC10126150
Values marked as one replicate rest on one cluster of the flow cell; about a third of the high ones do not repeat.

System: ATP
Assay: switch fluorescence ratio, 500 uM ATP over buffer (Cy3 cluster intensity, sum of 5 cycles each) (fold (ratio)); higher = stronger signal-on switching upon ATP binding; sequences stand for … in TCGTCGGCAGCGTCAGATGTGTATAAGAGACAGTTTTTTTTTTTTTTTTTTTTTTTTT…TC
Settings: aptamer strand: ATP DNA aptamer (quencher-CACCTGGGGGAGTATTGCGGAGGAAGG + anchor), 100 nM annealed; ATP concentration: 500 uM; one replicate
Procedure, shortened: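 Exposure to 500 uM ATP lasted 15 min at 22 °C before imaging, and a selection-buffer image was taken beforehand, for Cy3-labelled switching-strand clusters on a modified Illumina MiSeq flow-cell annealed to 100 nM quencher-labelled ATP aptamer. Five buffer/ATP cycles were run with NaOH stripping and re-annealing between them. The fluorescence ratio per cluster is summed target-cycle over summed buffer-cycle Cy3 intensity, averaged per switch-domain sequence. Clusters outside 100-1000 RFU were excluded.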

| Sequence | switch fluorescence ratio |
| --- | --- |
| GGGCACGGGC | 0.959 |
| GTACTGCCTA | 1.01 |
| GGATAACCGC | 1.06 |
| TCGGCTTCTA | 1.07 |
| GAGGGTCGAA | 0.981 |
| TCCGACATGC | 1.09 |
| GTCATAACGG | 0.983 |
| AGTCATAGAC | 0.986 |
| TATTTCGGG | 0.978 |
| CACGATTGCA | 1.01 |
| TTCATAAACA | 1.01 |
| TATGTTGAAT | 0.981 |
| AGGTTCGTCA | 1.02 |
| ATTCAATGCT | 1.03 |
| TTGGCTCTTC | 0.994 |
| TTGTTTTAG | 0.972 |
| CTAAGAAGTA | 0.99 |
| TGAAGGGAT | 1 |
| TATTGGAGTC | 1.01 |
| TGCGGTAGTA | 1.02 |
| CCGCAGCACG | 2.32 |
| TTGACCAGTT | 0.971 |
| CATCCTGAGG | 0.965 |
| CATCGGGAAA | 1.05 |
| GCTACAATGA | 1.02 |
| GATCGTGGGG | 0.967 |

| Sequence | switch fluorescence ratio |
| --- | --- |
| TGCATCATTC | 1.01 |
| GTTAATTGTG | 1.02 |
| GGAAGCCGTC | 1.02 |
| ACGTTCAGAC | 1.35 |
| GCGACAGGTG | 2.13 |
| CCGGAACGTG | 0.989 |
| CTAATACGAT | 1.05 |
| GATACCATTT | 1.03 |
| CCAGGCTTTG | 0.937 |
| AACACTCTGT | 1 |
| AATTCTTCTT | 1.01 |
| GTTAAGTATC | 0.974 |
| TTTAAATGGC | 0.984 |
| CCACAACGGG | 1.06 |
| ACTCAGTGAA | 1.12 |
| TGGGGTACCG | 1.02 |
| CAAAAGACCC | 1.15 |
| CAGCGTTGGG | 0.989 |
| CGTGTATGAC | 1.03 |
| CAGGGCTCGG | 0.954 |
| ACGCCGCGCC | 1.71 |
| TATTCGAAT | 0.959 |
| GCAGTAACCC | 1.19 |
| GCGGGTCTCC | 1.02 |
| GGTTGTTTGC | 0.997 |
| CATTCTGT | 0.95 |

| Sequence | switch fluorescence ratio |
| --- | --- |
| GGGCTTTTTG | 1.01 |
| GCCCGTAGAC | 2.28 |
| AAATCAATAA | 0.99 |
| GAGGTCGTTG | 1.03 |
| GTCGAGAAAA | 1.03 |
| CGAGAGGCGT | 1.02 |
| TCCGTAGCTT | 5.23 |
| CGCCCTTCGT | 1.09 |
| TATGCAGGGC | 1.02 |
| TTAAAGTTAC | 1.08 |
| TACTAAAAGG | 1.01 |
| GGCTCCAGGA | 1.05 |
| CATTTATTGG | 1.02 |
| GGAAGTCAGC | 0.919 |
| GAATCCAAGT | 0.993 |
| TAAAACTTAT | 1.05 |
| CCCCATAGGC | 1.15 |
| ATAAGAAAAT | 0.953 |
| TCCGGGCGTT | 1.29 |
| AGGGAAAGTA | 1.01 |
| TGTGAAAAGA | 1.02 |
| AGTATGATCT | 0.955 |
| CCCACCAGTA | 1.08 |
| ATAAATGTAA | 0.971 |
| GCTTCAGACG | 1.11 |
| ACGAAGCGTC | 2.52 |

| Sequence | switch fluorescence ratio |
| --- | --- |
| AGAATTATAA | 1 |
| TGGCGGGCG | 1.06 |
| AACCCCCCAA | 1.19 |
| TGGTATTGGC | 1.02 |
| TATTCCGTCT | 1.11 |
| GGTGGGATAA | 0.978 |
| CACTTCTCCT | 1.08 |
| TGGCTCGCAA | 3.42 |
| CGGTACTCTT | 1.05 |
| GAAGAGGGCA | 1.04 |
| ATCGGATAGT | 1.02 |
| GTGGTCTTCG | 0.994 |
| CGCAGTATTG | 1.1 |
| TACGAGGTGA | 1.04 |
| CTTCATTTT | 1.29 |
| GTGGGGCTAT | 1.03 |
| GAAATTGTCG | 0.961 |
| CGCAGTGGGC | 1.15 |
| ATTGCAAATG | 0.973 |
| TGTCGTTGAG | 1.02 |
| TATAGTCATG | 1.01 |
| GCAAACCGG | 1.04 |
| TTAACCGCTG | 1.13 |
| AGTTACCTGC | 0.974 |
| TCACCTTATG | 0.989 |
| TGATGAAAAT | 0.957 |

| Sequence | switch fluorescence ratio |
| --- | --- |
| TCAATTACAG | 1.04 |
| AACGCGGTGT | 1.03 |
| AACCCGATCT | 1.07 |
| GTGCAACTTT | 0.983 |
| AGTTCGGTT | 1.02 |
| ACGTTGAGAC | 1.05 |
| TGTCCAACTT | 1.05 |
| AAACGGGTAC | 1.11 |
| TAGGTTAGAA | 1.02 |
| TAGTCCCATG | 1.05 |
| TTATGACGG | 0.958 |
| TCTTTCGTGT | 0.964 |
| ACGACCATAA | 1.3 |
| GCAAAGGCAC | 1.03 |
| CCGGAGTTCA | 2.46 |
| CTGGGCTGG | 1.03 |
| TGTAAAATTG | 1.02 |
| AATTTTTGGT | 1.01 |
| ACGGTTTGCT | 1.16 |
| GGTAAACTGA | 1.05 |
| ATATCCGCAG | 3.06 |
| CGTGGGAGCC | 0.975 |
| TGTGCAAGTC | 1.11 |
| GGTTGCGTTA | 1.02 |
| TCTGCGCATG | 1.02 |
| AATCGGTCGA | 1.07 |

| Sequence | switch fluorescence ratio |
| --- | --- |
| GAATATGGGC | 1.02 |
| CTCTTGGATT | 0.99 |
| CTTTATCGTG | 0.98 |
| CCCAGTAAGG | 1.01 |
| ATTTAGCGCA | 0.971 |
| AAGGTAGGAG | 1.01 |
| ATCTGCGTCC | 1.05 |
| GCTGTGGTGG | 1.03 |
| ATGCATGAA | 0.982 |
| AAGTGAAAAC | 0.94 |
| AGTGCCCAAG | 1.04 |
| GACCGTAGGG | 0.979 |
| CTGATAGCCT | 1.11 |
| GTTCCGTGAG | 1.07 |
| GGGACATATA | 1.04 |
| TGCGTGCAGG | 1.03 |
| TTAAGAGAGA | 1.02 |
| AAAGCCACCA | 1.03 |
| GTGGGAGTTC | 0.99 |
| CATGTCCTGA | 0.994 |
| CAGGTTCCAT | 0.984 |
| CGGTTTTGGT | 0.963 |
| AACGTCTCGC | 0.985 |
| AGCACGGCCC | 1.01 |
| TTATTAACGG | 1.02 |
| CACCTTAAAA | 1 |

| Sequence | switch fluorescence ratio |
| --- | --- |
| CTGGGACCCA | 1.01 |
| GCTATCCATT | 1.05 |
| CTTTTATTA | 1 |
| TTACTATAGC | 1.08 |
| CACGTAATTC | 1.83 |
| CTCCGGTCGA | 1.88 |
| AAGATGATC | 1.03 |
| AATCACAGAG | 0.939 |
| TATTAAGGAA | 1.01 |
| CATACTTGGG | 0.988 |
| ACCTAGGCGG | 1.04 |
| CGCCCTCAAA | 1.04 |
| AGGTACGTGC | 0.99 |
| ATGGAAATAA | 1 |
| CTGGGCTAAG | 1.01 |
| TAAGTCTAGG | 1 |
| AGTGGCATGG | 1.04 |
| ATGCGATTTT | 1.13 |
| AGAATGATA | 1.05 |
| CCGGCTTTTC | 3.39 |
| TGATTCTACT | 0.98 |
| TGTAGAGAGT | 0.987 |
| TAGGTCGCGA | 1.02 |
| ACAGTTTAAA | 0.995 |
| CATGAAATAT | 0.95 |
| AAAGGGGCCA | 1.04 |

| Sequence | switch fluorescence ratio |
| --- | --- |
| CTAGGGTATG | 1 |
| TCGAAAAGAA | 1.01 |
| TTAATCTTGG | 0.972 |
| CTATGGTCTC | 0.954 |
| TAGACTGTTA | 1.03 |
| CAGCTGGGTA | 0.989 |
| TCTTCGGG | 0.939 |
| TCATTTCAGA | 1.02 |
| TACAAAAAGT | 1.03 |
| CGTATATCGT | 0.973 |
| GCGCGCACGT | 1.02 |
| TCGCTCCACA | 1.28 |
| TAAATAATGA | 1.01 |
| ACAACGCAAA | 5.34 |
| ACTAGTCTA | 1.01 |
| GGATATAAAG | 1.04 |
| GGGCTTGAA | 0.961 |
| TAGCCACGA | 1.05 |
| GCACTTTTAA | 1.02 |
